Reference: the antibiotic and cytotoxicity screens of Wong et al. (2023)
Some of the results follow.

Key:
HSkMC = human skeletal muscle cells; test: cytotoxicity call (relative viability < 0.9); settings: 10 µM
HepG2 = test: cytotoxicity call (relative viability < 0.9); settings: 10 µM
S. aureus RN4220 = test: growth inhibition call (relative growth <= 0.2); settings: 50 µM

Row | SMILES | cytotoxicity call (HSkMC) | cytotoxicity call (HepG2) | growth inhibition call (S. aureus RN4220)
1 | C[C@@H]1CN([C@@H](C)CO)C(=O)Cc2cc(NC(=O)CCN3CCOCC3)ccc2O[C@H]1CN(C)Cc1ccc(C(=O)O)cc1 | inactive | inactive | inactive
2 | Cc1noc(C)c1NC(=O)Nc1ccc2c(c1)C(=O)N([C@@H](C)CO)C[C@H](C)[C@H](CN(C)C(=O)Nc1ccc(C(F)(F)F)cc1)O2 | inactive | inactive | active
3 | CCc1nc2ccc(C(=O)Nc3ccc4c(c3)OCC(=O)N4)cn2c1N(CC)Cc1cccc(Br)c1 | inactive | inactive | inactive
4 | C[C@H]1CN([C@@H](C)CO)C(=O)Cc2cc(NC(=O)c3ccncc3)ccc2O[C@H]1CN(C)C(=O)Nc1ccc2c(c1)OCO2 | inactive | inactive | inactive
5 | Cc1cc(C)c2[nH]c3ccccc3c2n1 | inactive | active | inactive
6 | C[C@H]1CCCCO[C@@H](CN(C)S(=O)(=O)c2ccc(Cl)cc2)[C@@H](C)CN([C@@H](C)CO)C(=O)c2cc(NS(=O)(=O)c3ccc(Cl)cc3)ccc2O1 | inactive | inactive | inactive
7 | C[C@@H]1CN([C@@H](C)CO)C(=O)c2cc(NC(=O)c3ccccc3)ccc2O[C@@H](C)CCCCO[C@H]1CN(C)CC1CCCCC1 | inactive | active | inactive
8 | CCS(=O)(=O)N1C[C@]2(CN(C2)S(=O)(=O)c2cn(cn2)C)c2c([nH]c3cc(ccc23)OC)[C@@H]1CO | inactive | inactive | inactive
9 | Cc1cc(C(=O)Nc2cccc3c2O[C@@H](CN(C)S(C)(=O)=O)[C@H](C)CN([C@@H](C)CO)C3=O)n(C)n1 | inactive | inactive | inactive
10 | CCOC(=O)N(C)C[C@@H]1OCc2cn(nn2)CCCC(=O)N([C@@H](C)CO)C[C@H]1C | inactive | inactive | inactive
11 | CN(C)CC(=O)N1CC(=O)N2[C@H](CO)[C@H](c3ccc(C#Cc4cccnc4)cc3)[C@H]2C1 | inactive | inactive | inactive
12 | COc1ccc(NC(=O)Nc2ccc3c(c2)C(=O)N([C@H](C)CO)C[C@@H](C)[C@H](CN(C)S(=O)(=O)c2ccc(F)cc2)OCCCC[C@@H](C)O3)cc1 | inactive | inactive | inactive
13 | C[C@H](CS)C(=O)N1CCC[C@H]1C(=O)O | inactive | inactive | inactive
14 | C[C@H](CO)N1C[C@H](C)[C@H](CN(C)S(=O)(=O)c2ccc(F)cc2)Oc2ccc(NS(C)(=O)=O)cc2C1=O | inactive | inactive | inactive
15 | Cc1n[nH]c(N/N=C/c2ccccn2)nc1=O | active | active | inactive
16 | O=C(C[C@H]1C[C@H]2c3cc(NC(=O)Cc4ccncc4)ccc3O[C@H]2[C@@H](CO)O1)NCc1ccc2c(c1)OCO2 | inactive | inactive | inactive
17 | CC(C)NC(=O)Nc1ccc2c(c1)CC(=O)N([C@H](C)CO)C[C@H](C)[C@H](CN(C)S(=O)(=O)c1ccc(F)cc1)O2 | inactive | inactive | inactive
18 | COc1cccc(S(=O)(=O)N(C)C[C@H]2Oc3ncc(-c4cccc(C(=O)N(C)C)c4)cc3C(=O)N([C@@H](C)CO)C[C@@H]2C)c1 | inactive | inactive | inactive
19 | COc1ccc(NC(=O)N(C)C[C@@H]2Oc3c(NC(=O)Nc4cccc5ccccc45)cccc3C(=O)N([C@H](C)CO)C[C@H]2C)cc1 | inactive | inactive | inactive
20 | C[C@@H]1CN([C@@H](C)CO)C(=O)Cc2cc(NC(=O)CCN3CCOCC3)ccc2O[C@H]1CN(C)Cc1ccncc1 | inactive | inactive | inactive
21 | C[C@@H](Sc1nc2ncnc(N)c2[nH]1)C(=O)O | inactive | inactive | inactive

Row | SMILES | cytotoxicity call (HSkMC) | cytotoxicity call (HepG2) | growth inhibition call (S. aureus RN4220)
22 | Cc1noc(C)c1S(=O)(=O)Nc1ccc2c(c1)CC(=O)N([C@H](C)CO)C[C@H](C)[C@@H](CN(C)CC1CC1)O2 | inactive | inactive | inactive
23 | N[C@@H]1CONC1=O | inactive | inactive | inactive
24 | CC(C)NC(=O)N(C)C[C@@H]1Oc2ccc(NS(=O)(=O)c3ccc(Cl)cc3)cc2CC(=O)N([C@H](C)CO)C[C@@H]1C | inactive | inactive | inactive
25 | CC(C)(C)OC(=O)N[C@H]1CCC(=O)NC1=O | inactive | inactive | inactive
26 | C[C@H](CO)N1C[C@H](C)[C@H](CN(C)Cc2ccc(Cl)c(Cl)c2)Oc2ccc(NC(=O)Cc3ccccc3)cc2C1=O | inactive | inactive | inactive
27 | C[C@@H]1CN([C@H](C)CO)C(=O)c2cc(NC(=O)C3CCCCC3)ccc2O[C@@H](C)CCCCO[C@@H]1CN(C)S(=O)(=O)c1cccs1 | inactive | inactive | inactive
28 | C[C@H](CO)N1C[C@H](C)[C@H](CN(C)Cc2ccc(-c3ccccc3)cc2)Oc2ccc(NS(=O)(=O)c3ccc(Cl)cc3)cc2CC1=O | inactive | inactive | inactive
29 | C[C@@H]1CN([C@H](C)CO)C(=O)Cc2cc(NS(=O)(=O)c3ccc(F)cc3)ccc2O[C@@H]1CN(C)S(=O)(=O)c1cccs1 | inactive | inactive | inactive
30 | CC[C@H](C)[C@@H]([C@@H](CC(=O)N1CCC[C@H]1[C@H](OC)[C@@H](C)C(=O)N[C@@H](Cc1ccccc1)c1nccs1)OC)N(C)C(=O)[C@@H](NC(=O)[C@H](C(C)C)N(C)C)C(C)C | active | active | inactive
31 | C[C@@H]1CCCCO[C@H](CN(C)C(=O)c2ccccc2)[C@H](C)CN([C@@H](C)CO)C(=O)c2cc(NS(=O)(=O)c3cccs3)ccc2O1 | inactive | inactive | inactive
32 | C[C@@H]1CN([C@@H](C)CO)C(=O)c2cc(NC(=O)CCCN(C)C)ccc2O[C@H]1CN(C)S(=O)(=O)c1ccccc1 | inactive | inactive | inactive
33 | CC(C)NC(=O)N(C)C[C@H]1Oc2ccc(NC(=O)Nc3ccc4c(c3)OCO4)cc2C(=O)N([C@H](C)CO)C[C@@H]1C | inactive | inactive | inactive
34 | Cc1noc(C)c1S(=O)(=O)Nc1cccc2c1O[C@@H](CN(C)S(=O)(=O)c1ccc(Cl)cc1)[C@@H](C)CN([C@H](C)CO)C2=O | inactive | inactive | inactive
35 | CC(C)CC#Cc1ccc2c(c1)O[C@H](CN(C)C(=O)c1cccnc1)[C@@H](C)CN([C@H](C)CO)S2(=O)=O | inactive | inactive | inactive
36 | C[C@@H]1CN([C@@H](C)CO)C(=O)c2cc(NC(=O)NC3CCCCC3)ccc2O[C@@H](C)CCCCO[C@H]1CN(C)C(=O)Nc1ccccc1 | inactive | inactive | inactive
37 | CCC1NC(=O)c2cc(S(N)(=O)=O)c(Cl)cc2N1 (stereo unspecified) | inactive | inactive | inactive
38 | C[C@H]1CN([C@@H](C)CO)S(=O)(=O)c2ccc(-c3ccc(C(=O)N(C)C)cc3)cc2O[C@H]1CN(C)C(=O)C1CCC1 | inactive | inactive | inactive
39 | COC(=O)c1sccc1NC(=O)Cn1cnc2c1c(=O)n(C)c(=O)n2C | inactive | inactive | inactive
40 | C[C@H]1CCCCO[C@@H](CN(C)Cc2ccc(C(F)(F)F)cc2)[C@@H](C)CN([C@@H](C)CO)C(=O)c2cc(NC(=O)c3ccncc3)ccc2O1 | inactive | inactive | inactive
41 | C[C@@H]1CN([C@@H](C)CO)C(=O)c2cc(NC(=O)Cc3ccccc3)ccc2O[C@@H]1CN(C)S(=O)(=O)c1cccs1 | inactive | inactive | inactive
42 | C[C@@H]1CN([C@H](C)CO)C(=O)c2cc(NC(=O)Nc3ccccc3)ccc2O[C@@H](C)CCCCO[C@H]1CN(C)S(=O)(=O)c1ccc(Cl)cc1 | inactive | active | inactive
